# The other results are listed elsewhere or left out.
# Test system: PfSIP2 AP2 domain 1 (GST-tagged)
# Test: gcPBM binding intensity (ln(normalized median fluorescence intensity)); higher = stronger DNA binding
# Procedure, shortened: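 Alexa488 anti-GST antibody, scanned at 488 nm, detected GST-tagged P. falciparum DNA-binding domains that had been expressed in E. coli and incubated for 1 h on an Agilent 4 × 180k array. The array carried primer-extended double-stranded 36-bp intergenic genomic probes and negative controls. Binding intensity is the highest Masliner-normalised natural-log median intensity across replicate spots of either orientation of each probe.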
row,Sequence,gcPBM binding intensity (ln)
1,AAACATAAAGAAAAAAAAAATATATATTTATTTATT [GTGCAC_negctrl_site357],6.75
2,ATATATTAACAAAAGGTGCTTTTGGCAAAGTATAAT,8.1
3,TTATTTAAATATTGATGTACTCTCCTTATTATAATA [XGTACX_site1240],7.13
4,ATAAAAATGGTGTTAACACACACATATATATATATA [CACACA_site8089],9.45
5,GGTAATTATTTTGGTTGTACTCAAATATATAATATT [XGTACX_site291],7.4
6,GAGAAAGATATATACACACACATAAATATGTACATA [CACACA_site6975],7.03
7,TTTCCCAAGCTTATTACACACAAGTAGAATAAGCTT [CACACA_site1561],6.81
8,TATATAGGTAAAAAATGTACTTATATTGAATATATT [XGTACX_site4414],6.77
9,TTTACAATATTAAAATGTACATATAAAATAAATAAA [XGTACX_site8367],7.14
10,GATATCAAATATAAATGTACAAATTATATATACATA [XGTACX_site3228],6.83
11,TTCTTATTTATTTTCTTCTCCTTCCTCAAATTTTTT [GTGCAC_negctrl_site592],6.95
12,AATTTGTTAATATTTTGTACACATAATATAAAAACA [XGTACX_site2224],7.08
13,TTTACAATATAAAATACACACACACTAACATATATT [CACACA_site9231],7.1
14,TATATAAATGTTATCACACACTCACGTTTGACAAAA [CACACA_site6468],6.97
15,ATACAATAAAATAAGTTTGAATAAAATTAAATATAT [CACACA_negctrl_site877],6.77
16,TCCTTTTTTAAAAGTTGTACATTATTGTTATTTGTT [XGTACX_site4686],6.94
17,TTCCTCTTAATATGTGCACACTAAATTATAACCTAA [CACACA_site5751],9.95
18,GAAGGAAATAATAGTAGTACAAATGGTAAGAAATAT [XGTACX_site5845],7.53
19,ATTTTTTCTGTCTTAATTGGACCCACTGCAAATGGG [CACACA_negctrl_site1158],6.94
20,ATAATACAAAAAAAAAAAAAAAATAAAATAATAAAA [GTGCAC_negctrl_site722],6.92
21,AAGTAATACAACACGCACATATATATATATATATAT [GTGCAC_negctrl_site89],9.94
22,TTATAGCCTGTGAAGAGTACATTTTTATTTTTTATT [XGTACX_site4105],6.85

row,Sequence,gcPBM binding intensity (ln)
1,TACCTAAATAAATGGACACACACATATATATATATA [CACACA_site8407],9.63
2,TATTTTTAAATATAAAGTACTTATATTAACTACGAA [XGTACX_site1524],6.95
3,TTCATATATTTTAAAGCATGCATTCATCTTATAGTT [TGCATGCA_site800],6.94
4,TTTACGCTATAGGAGAGTACTTATAAAATCCTGTGT [XGTACX_site2364],6.96
5,TACAAAATATATATGACACACACAAAAAAAGTATAT [CACACA_site8455],7.06
6,TATTTTTCCATTGGGGGTACATGTGTTATATTTATT [XGTACX_site5914],8.61
7,AGACGAAAATAATAAAGTACTAAAAAAAAAAAAAAA [XGTACX_site927],6.77
8,ATATATATGCATATATGTACTTAAAATATAAAGGCA [XGTACX_site3256],7.29
9,ATAAGATGATGGAACTGTAATATATATATATATATA [CACACA_negctrl_site839],9.32
10,TTTAAGAGTTGCACACGTACAAAAAAAAAAAAAAAA [XGTACX_site7406],7.99
11,TTGTATACATAAAATGGTACAGAATATATAATTCTA [XGTACX_site7236],6.79
12,GTATACCAACATATTATACACACCTTTATATTTTTT [CACACA_site2153],7.12
13,ATTACATGTTACTTAACACACATCTGGTGAAATAAT [CACACA_site171],7.05
14,TTAATTAAAATTTATACATGCATAAAAGAAATACAC [TGCATGCA_site537],7.88
15,ATTTTTTTCTTTTCTTTTTTCTTTTTTTTTTTTGGT [CACACA_negctrl_site1146],6.69
16,GTAATGAAACATTGCACACATATAATAATATAATAT [CACACA_site1422],7.19
17,TTATACTGTTTCAGAAAAATAAAGAATGAAAGTATT [XGTACX_negctrl_site230],7.1
18,TTTTTATATTCCCCCAGTACATATATAATAGTAGTA [XGTACX_site7927],8.16
19,TGCAACAAAATAAACACACACACACCCCCACAAAAA [CACACA_site3388],8.26
20,AATAAAAAAATAAAATGTACATACAAATAAATAAAT [XGTACX_site5153],6.86
21,TATTTTAATGAAGCATTTAAGGGAAAAAAAAAAAAA [TGCATGCA_negctrl_site606],6.81
22,TTTTTATTTTTTTTATGTACACAAATGATATACATA [XGTACX_site5910],7.44

row,Sequence,gcPBM binding intensity (ln)
1,AGGATACACGGACACACACACATATAGATTTATATA [CACACA_site6552],7.15
2,TTTCTTTTTTTTTTTTTTTCTGGCTTTTTCTCTTTT [TGCATGCA_negctrl_site599],6.53
3,TATATTACTTAAAATACACACCATGGAAAAGTTTTA [CACACA_site5443],6.77
4,ATTATTTTTCTATGTGTGCACGTGTGGAATGTGTCT [GTGCAC_site9507],10.3
5,TTCTGAACAAAATTATATATTTATTTTTATTTTCAT [CACACA_negctrl_site422],6.91
6,CATTATGTCATAAATGCACACATATACATTGTTTTG [CACACA_site8118],7.26
7,AATAAATTATTTATTGCATGTAATATGAATATTTTT [TGCATGCA_site798],6.69
8,TAATGTATGAAATAAACACACAAGTAAGTACATAAA [CACACA_site2451],7.19
9,ATATATTTTATTCCTATATATATATATATATATATA [GTGCAC_negctrl_site556],9.69
10,TCTGTAGTTTTTTACAGTACTTTTAGGTAATACATA [XGTACX_site7417],6.77
11,TTCTTGTATTTTCATAGTACATATAATGTCGTGTTA [XGTACX_site7714],7.1
12,AAAACACCCAAACACACACACACATATATATATATA [CACACA_site9119],9.55
13,AGAAAAAAAATATACACACATACGATCATACATATG [CACACA_site2171],6.86
14,TACATAGAGTTTGTTTGTACTCATATGCGTAAATTC [XGTACX_site4810],6.97
15,ACCTCTTTGAAATATACACACTAAACATATCAACTT [CACACA_site5372],7.47
16,AATATTATTATTATTACACACACAATTATATTTACC [CACACA_site8061],7.05
17,ATATTTTAAATGTTATGTACACATTTGTTGTTTACA [XGTACX_site7353],7.18
18,TTAATTTGTTCTTACACACACATATATATATATTTA [CACACA_site1185],7.27
19,ATTTTTTTTTTTATTTTCTTTGAGATTATCTTAATT [CACACA_negctrl_site1209],6.75
20,TATATATATACATAATGTACATTTTATAAATTTACA [XGTACX_site5283],8.01
21,ACTACCTATATTTAAGCATGCAAAAAATAAAAATAT [TGCATGCA_site238],7.47
22,ATAAATTGTTCTTTTTGTGTAAACAGAATATTAAAA [CACACA_negctrl_site1022],6.98

row,Sequence,gcPBM binding intensity (ln)
1,ATACAACATATATATACACACATATAATAATAATAA [CACACA_site3367],7.32
2,AAACCAATAAAAAACTGTACAAAAATTATATGAGAT [XGTACX_site1269],7.02
3,GAATAAAAAATATATGTGCACATATAAACTTAAAAT [GTGCAC_site9554],8.41
4,TAATATAAAGGAAAAGAAAAGAAAAGAATATACAAT [CACACA_negctrl_site1369],6.69
5,AAAAAAAAAAAAAAAATACACACGTGAATGTATTGT [CACACA_site1320],7.53
6,AAATAACACATATATACACACATATAAATATAATAT [CACACA_site2692],7.08
7,AAAAAACTTATAATCACACATATGATTAAATATTAA [CACACA_site4956],6.74
8,ATAGGACCTATGTGCCCATGGGTACATTAAAAAAAA [CACACA_negctrl_site1465],6.83
9,TTGAATGTAGTTAAATGTACATGTAATATATAAAAA [XGTACX_site1250],7.27
10,AATTATTTTTTGTATGAACACACAACTTAATTATGA [CACACA_site8774],6.95
11,TTTGTTTTAAATCGAAGTACACATAATTATATTTTA [XGTACX_site1541],7.2
12,TTTTTACGTAAACAAAATAATTATATAATATTATTT [CACACA_negctrl_site1769],6.86
13,CGTAAATTTTTTAAAAGTACAAAAAGATACGAGAAA [XGTACX_site8722],7.11
14,TAAACAAATAAATAAACACACAATATATGTATATAT [CACACA_site3803],6.87
15,ATATTTATATTTGTATGTACTTAAGTTTGTATGTAT [XGTACX_site3608],7.4
16,TTTTTAATTCAAAAAATAATATATTATATTTCAAAT [CACACA_negctrl_site737],6.77
17,ATATATTAGGGCAAATTTTCTGACATTACATCAGTC [CACACA_negctrl_site1166],6.92
18,TATTTTTCTTTTTTCTGTACTCACACAAATAGAAGG [XGTACX_site7329],7.51
19,TAAAAATGTAGACACACACACATATATATATTTAAT [CACACA_site1528],7.06
20,AAATAATTAGCTATTTGTACATATATACATATTTAT [XGTACX_site4652],6.99
21,TTAATAACAAAATAAACACACATATATAAATCCACA [CACACA_site1590],6.97

# — the supplement of paper PMC11417369
